Results on 71 compounds are retold here after PubChem BioAssay AID488969 (Vanderbilt High Throughput Screening Facility, 2010).

In all, about 110,000 compounds were measured (“z-score”: median about -0.1, highest 2% from about 2 on). The list shows a part of the results.

This test addresses Metabotropic glutamate receptor 8 (Rattus norvegicus) (UniProt P70579). The test is described as follows: mGluR8 Gi/Go-coupled signaling modulation – cell-based, rat, thallium flux, HTS, primary screen (AID 488969). To be noted: HEK293 rat mGluR8, GIRK (G protein-gated inwardly rectifying potassium channel) thallium flux, FluoZin2; at 10 µM; stronger effect = higher value; submaximal glutamate (EC20) added with thallium.
Chain of UniProt P70579 (P70579 whole entry, looked up): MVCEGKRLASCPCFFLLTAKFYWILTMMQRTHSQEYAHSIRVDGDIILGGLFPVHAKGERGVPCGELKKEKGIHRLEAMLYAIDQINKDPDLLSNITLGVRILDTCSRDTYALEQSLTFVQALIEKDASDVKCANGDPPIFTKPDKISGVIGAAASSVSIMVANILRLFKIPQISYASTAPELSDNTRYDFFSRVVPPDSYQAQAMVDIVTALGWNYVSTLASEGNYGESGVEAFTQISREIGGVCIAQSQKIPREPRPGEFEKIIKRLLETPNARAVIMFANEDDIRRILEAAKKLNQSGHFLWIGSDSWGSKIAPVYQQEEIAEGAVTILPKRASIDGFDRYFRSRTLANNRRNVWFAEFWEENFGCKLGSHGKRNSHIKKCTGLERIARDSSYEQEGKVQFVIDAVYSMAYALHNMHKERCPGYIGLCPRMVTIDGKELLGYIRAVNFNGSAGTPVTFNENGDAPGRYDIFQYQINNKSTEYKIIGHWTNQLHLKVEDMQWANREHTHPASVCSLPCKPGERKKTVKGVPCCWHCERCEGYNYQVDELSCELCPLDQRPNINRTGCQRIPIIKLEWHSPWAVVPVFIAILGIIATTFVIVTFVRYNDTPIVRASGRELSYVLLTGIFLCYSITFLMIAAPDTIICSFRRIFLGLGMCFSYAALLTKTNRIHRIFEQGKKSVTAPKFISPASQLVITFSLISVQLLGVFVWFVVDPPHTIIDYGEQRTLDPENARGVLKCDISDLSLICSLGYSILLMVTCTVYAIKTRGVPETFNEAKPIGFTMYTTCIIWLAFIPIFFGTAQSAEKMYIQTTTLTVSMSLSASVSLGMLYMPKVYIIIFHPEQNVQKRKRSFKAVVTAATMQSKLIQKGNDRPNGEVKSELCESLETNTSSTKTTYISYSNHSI
`O=C(c1ccc(Br)cc1)c1cc(-c2ccccn2)c(N2CCOCC2)s1` displayed a z-score of -0.353. For `Cc1ccc(OCC(=O)Nc2ccc(S(=O)(=O)N3CCN(C)CC3)cc2)cc1` the value was -0.0465; for `Cc1ccc2c(c1)C(c1ccccc1)N(C(=O)C(C)C)CC(=O)N2` (stereo unspecified), -0.0998. For `COc1cccc(C2=NOC(C(=O)N3CCc4ccccc4C3)C2)c1` (stereo unspecified) the value was -0.112.

The compound `CC(=O)C(Sc1ccc2nnc(-c3ccc(F)cc3)n2n1)C(C)=O` returned a z-score of -2.82. The compound `CCc1cc(C(c2ccccn2)N2CCN(C)CC2)c(NC(=O)c2ccccc2)s1` (stereo unspecified) showed a z-score of 0.162. `CS(=O)(=O)N(CC(=O)N1CCCCCC1)c1ccccc1`: the z-score came to 0.048.

In the case of `COc1ccc(NC(=O)CN2CCC3(O)CCCCC3C2c2cc(OC)ccc2OC)cc1` (stereo unspecified), the z-score is -0.103. For `O=C(OCCOCCN=C1NS(=O)(=O)c2ccccc21)C1CC(=O)N(c2ccccc2)C1` (stereo unspecified), the z-score was -0.914. Then `CCNc1nc(NC(C)C)nc(OCCOC(=O)Nc2ccccc2)n1`, with -0.666. Then `O=C1CN2C(=Nc3ccc(Br)cc3C2c2ccccc2)CCN1` (stereo unspecified), with 0.574; and `CCCCCCc1nc2ccccc2c(=O)n1NC(=O)c1c(O)c2c(n(CC(C)C)c1=O)CCCC2`, with 0.0619; and `O=C(CSc1nc2ccccc2s1)NNC(=S)Nc1ccccc1`, with 0.75. Then `Clc1cc(Br)ccc1OCCCNCc1ccccc1`, with 1.69; and `CNC(=O)c1ccc(-c2sc3nc(N4CCOCC4)c4c(c3c2N)CC(C)(C)OC4)o1`, with -0.879; and `C=CCOc1c(CNn2nnnc2N)cccc1OC`, with -1.28.

Compound `N#C/C(=C/Nc1ccccc1)c1ccsc1` had a z-score of 0.2.

`O=C(COC(=O)Cc1ccsc1)NC(c1ccccc1)c1ccccc1` gave a z-score of -0.486. For `COC(=O)c1nnc(-c2ccccc2)c(-c2ccccc2)n1` the value was 0.163; for `COCc1[nH]nc2c1C(c1ccccc1Cl)C(C#N)=C(N)O2` (stereo unspecified), -1.13; for `Cc1ccc(C(=O)Cn2c(C(=O)/C=C/c3ccccc3)nc3ccccc32)cc1`, 0.0797. For `Cc1ccc(S(=O)(=O)c2c(C)nn(C(C)(C)C)c2OC(=O)C2CCCC2)cc1`, the z-score is -0.0263.

For the compound `CCCCC1CC(/C(C)=N/NC(N)=O)OC1=O` (stereo unspecified), the z-score is -0.458. For the compound `CCOC(=O)C1CCN(c2c(N3CCCC(C(=O)OCC)C3)c(=O)c2=O)CC1` (stereo unspecified), the z-score is 0.103. For `COC(=O)C(Oc1ccc2c(-c3ccc(OC)cc3)cc(=O)oc2c1)c1ccccc1` (stereo unspecified) the value was -0.279; for `CCOc1ccc(OCC)c(NC(=O)C2CCCN2S(=O)(=O)c2cccc3cccnc23)c1` (stereo unspecified), -0.928; for `Cc1ccnc(N(C(=O)c2cccs2)C(=O)c2cccs2)c1`, -0.0449. For `C=CCn1c(=O)/c(=C/c2ccc(O)cc2)s/c1=C(/C#N)c1nnc2n1CCCCC2` the value was -1.58; for `Cc1cnn(CCC(=O)NNC(=S)Nc2cccc(Cl)c2)c1`, -0.0279.

`O=C(Nc1ccc(Oc2cccnc2)cc1)c1ccccc1Cl` registered a z-score of -0.172. Then `CC(=O)Nc1ccc(C(=O)n2cnc3cc(C)c(C)cc32)cc1`, with 0.0266; and `CCCCn1c(=O)n(CC(O)c2ccccc2)c(=O)c2c1ncn2C1CCCC1` (stereo unspecified), with -0.34; and `Cc1cc(C)nc(SCC(=O)N/N=C/C=C/c2ccccc2)n1`, with 0.0171. Then `O=C(CSc1ncnc2c1nnn2-c1ccc(F)cc1)NCc1ccco1`, with 0.0451.

Regarding `COc1c(C)cccc1C(=O)Nc1cc(Cl)ccc1N1CCOCC1`, the z-score is -0.0675.

The compound `Cc1ccc(S(=O)(=O)N2CCN(S(C)(=O)=O)C2c2ccccc2)cc1` (stereo unspecified) gave a z-score of -0.283.

`CC(C)C12CN3CC(C(C)C)(CN(C1)C31C(=O)Nc3ccccc31)C2=O` (stereo unspecified) had a z-score of 0.558. `O=C(Oc1cccc(-c2cnc3ccccc3n2)c1)c1ccco1` yielded a z-score of -0.29. The compound `O=C(c1cc(-c2cccnc2)nc2ccccc12)N1CCCc2ccccc21` showed a z-score of -1.04. As for `O=C(O)CCNS(=O)(=O)c1ccc(Oc2ccccc2)cc1`, the z-score is -0.113. Then `Cc1cccc(OCC(=O)NC(C)C(=O)N/N=C/c2c(OCc3ccccc3)ccc3ccccc23)c1` (stereo unspecified), with -0.18.

With `CCOC(=O)CSc1ncnc2c1cnn2-c1ccc(C)cc1`, the z-score was 0.395. For `c1cc(CNc2ccc(N3CCOCC3)cc2)ccn1` the value was -0.3. For `Cc1ccc(-n2nc(C)c3c2OC(N)=C(C#N)C3c2ccccc2F)cc1` (stereo unspecified) the value was 0.0632.

On to `OC1CCN(C(=S)NCCc2ccccc2)CC1`, for which the z-score was -0.692.

With `COC(=O)c1ccccc1NC(=O)/C=C/c1cc(OC)c(OC)c(OC)c1`, the z-score is -0.105. Then `CC(CN1CCOCC1)C(=O)c1ccccc1` (stereo unspecified), with -0.0294. Then `Cc1ccc(N2CC(C(=O)N3CCN(c4ccccc4)CC3)CC2=O)cc1` (stereo unspecified), with -0.11; and `CCCC(CCC(=O)Nc1ccc(S(N)(=O)=O)cc1)C(=O)O` (stereo unspecified), with 0.0428; and `COc1ccc(CN(C(C)=O)c2cccc(C)c2C)cc1`, with -0.144. Then `O=C1CSC(c2ccccc2F)N1c1ccccc1` (stereo unspecified), with 0.00473; and `Cc1cc(NC(=O)CSCC(=O)N(c2cccc(Cl)c2)C(C(=O)NC2CCCCC2)c2ccc(O)c(O)c2)no1` (stereo unspecified), with -0.0665; and `Cc1cc2occ(CC(=O)NC3CCCc4ccccc43)c2cc1C` (stereo unspecified), with 0.0042.

Compound `O=C(Cn1ncc2c1-c1ccccc1OC2)Nc1ccc(S(=O)(=O)N2CCCCC2)cc1` gave a z-score of 0.0325. Then `COc1ccc(S(=O)(=O)N(C)CC(=O)Nc2ccccc2C(F)(F)F)cc1Cl`, with 0.0193; and `COC(=O)c1ccccc1NC(=O)c1sc(=S)n(C)c1N`, with 0.0466.

`COc1cccc(/C=N/Nc2ncnc(Cl)c2N)c1O` showed a z-score of -0.0315. Then `N#Cc1cc2c(nc1SCC(=O)Nc1sc3c(c1C#N)CCC3)CCCCCC2`, with -0.0358; and `CCOC(=O)c1nnc(-c2ccc(C)cc2)nc1Oc1ccc(Cl)cc1Cl`, with 0.061. `CCC1(C)N(O)C(C)(C)C(c2ccc(F)cc2)=[N+]1[O-]` (stereo unspecified) had a z-score of -0.195. Then `Cc1cc(=O)[nH]c(N=N/C(=N/Nc2ccccc2C)c2ccccc2)n1`, with -0.0508. For `CCSc1nc(-c2cccnc2)ccc1C#N` the value was -0.504; for `COc1ccc(CCN2C(=O)CC(NNC(=O)c3ccccc3Br)C2=O)cc1OC` (stereo unspecified), -0.0544; for `Clc1ccccc1CSc1nncn1NC/C=C/c1ccccc1`, -0.186. Then `CN1CC[n+]2cnc3ccccc3c21`, with 0.206; and `N#Cc1cc2c(nc1SCc1nc3ccccc3[nH]1)CCC2`, with 0.426; and `Nc1ccc(Oc2ccc([N+](=O)[O-])cc2[N+](=O)[O-])cc1`, with -0.416. In turn, `Cc1nn(-c2ccc(Cl)cc2)c(Cl)c1/C=C(\C#N)C(N)=O` gave a z-score of -0.0578.

As to `O=C(Nc1cccc(Cl)c1)Nc1ccc(Cl)cn1`, the z-score was determined as 0.563. In the case of `CCN(C(=O)COc1ccccc1)c1nnc(-c2cccnc2)s1`, the z-score is -0.182. For `Cc1cc(C(=O)NCc2ccc(C(=O)O)o2)c(C)o1` the value was -0.0605.
